# Source: the supplement of paper PMC8728848
# This is one part of the list.
# B1: GNL (Galanthus nivalis) (protein)
# chain: MGHHHHHHHHYGTLENGHWLMVGMSIFSKDRTVELRMQDDGKLAIYYNDHCAWQSTAQQVNNAKGAVMQGDGNFCIYDKNGKATWHTNTAAPSGDSHTFVSVQDDGNLVLYKNNGATPIWSSKSNK
# Key:
# Test in all cases: glycan array binding signal (z-score within array); higher = stronger binding
# Settings in all cases: glycan notation: IUPAC condensed, linker removed
# [1] = target: Neu5Ac(a2-6)Gal(b1-4)GlcNAc(b1-2)Man(a1-3)[Neu5Ac(a2-3)Gal(b1-4)GlcNAc(b1-2)Man(a1-6)]Man(b1-4)GlcNAc(b1-4)GlcNAc
# In short: (§1)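 The binding signal is a Z-score computed within each array and averaged over linkers. Arrays of the same protein sequence at different concentrations or buffers were also averaged together. Data originate from 3228 arrays in the Consortium for Functional Glycomics database, kept only where the protein sequence was available.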
# [2] = target: Neu5Ac(a2-6)Gal(b1-4)GlcNAc(b1-2)Man(a1-3)[Neu5Ac(a2-6)Gal(b1-4)GlcNAc(b1-2)Man(a1-6)]Man(b1-4)GlcNAc(b1-4)GlcNAc
# In short: as §1
# [3] = target: Neu5Ac(a2-6)Gal(b1-4)GlcNAc(b1-2)Man(a1-3)[Neu5Ac(a2-6)Gal(b1-4)GlcNAc(b1-2)Man(a1-6)]Man(b1-4)GlcNAc(b1-4)[Fuc(a1-6)]GlcNAc
# In short: as §1
# [4] = target: Neu5Ac(a2-6)Gal(b1-4)GlcNAc(b1-2)Man(a1-6)Man(b1-4)GlcNAc(b1-4)GlcNAc
# In short: as §1
# [5] = target: Neu5Ac(a2-6)Gal(b1-4)GlcNAc(b1-2)Man(a1-6)[Gal(b1-4)GlcNAc(b1-2)Man(a1-3)]Man(b1-4)GlcNAc(b1-4)GlcNAc
# In short: as §1
# [6] = target: Neu5Ac(a2-6)Gal(b1-4)GlcNAc(b1-2)Man(a1-6)[GlcNAc(b1-2)Man(a1-3)]Man(b1-4)GlcNAc(b1-4)GlcNAc
# In short: as §1
# [7] = target: Neu5Ac(a2-6)Gal(b1-4)GlcNAc(b1-2)Man(a1-6)[Man(a1-3)]Man(b1-4)GlcNAc(b1-4)GlcNAc
# In short: as §1
# [8] = target: Neu5Ac(a2-6)Gal(b1-4)GlcNAc(b1-2)[Neu5Ac(a2-6)Gal(b1-4)GlcNAc(b1-4)]Man(a1-3)[GlcNAc(b1-4)][Neu5Ac(a2-6)Gal(b1-4)GlcNAc(b1-2)[Neu5Ac(a2-6)Gal(b1-4)GlcNAc(b1-6)]Man(a1-6)]Man(b1-4)GlcNAc(b1-4)GlcNAc
# In short: as §1
# [9] = target: Neu5Ac(a2-6)Gal(b1-4)GlcNAc(b1-2)[Neu5Ac(a2-6)Gal(b1-4)GlcNAc(b1-4)]Man(a1-3)[GlcNAc(b1-4)][Neu5Ac(a2-6)Gal(b1-4)GlcNAc(b1-4)Man(a1-6)]Man(b1-4)GlcNAc(b1-4)GlcNAc
# In short: as §1
# [10] = target: Neu5Ac(a2-6)Gal(b1-4)GlcNAc(b1-2)[Neu5Ac(a2-6)Gal(b1-4)GlcNAc(b1-6)]Man(a1-6)[Neu5Ac(a2-6)Gal(b1-4)GlcNAc(b1-2)Man(a1-3)][GlcNAc(b1-4)]Man(b1-4)GlcNAc(b1-4)GlcNAc
# In short: as §1
# [11] = target: Neu5Ac(a2-6)Gal(b1-4)GlcNAc(b1-3)Gal(b1-3)GlcNAc
# In short: as §1
# [12] = target: Neu5Ac(a2-6)Gal(b1-4)GlcNAc(b1-3)Gal(b1-4)GlcNAc
# In short: as §1
# [13] = target: Neu5Ac(a2-6)Gal(b1-4)GlcNAc(b1-3)Gal(b1-4)GlcNAc(b1-2)Man(a1-3)[Neu5Ac(a2-6)Gal(b1-4)GlcNAc(b1-3)Gal(b1-4)GlcNAc(b1-2)Man(a1-6)]GalNAc
# In short: as §1
# [14] = target: Neu5Ac(a2-6)Gal(b1-4)GlcNAc(b1-3)Gal(b1-4)GlcNAc(b1-3)Gal(b1-4)GlcNAc
# In short: as §1
# [15] = target: Neu5Ac(a2-6)Gal(b1-4)GlcNAc(b1-3)Gal(b1-4)GlcNAc(b1-3)Gal(b1-4)GlcNAc(b1-2)Man(a1-3)[Neu5Ac(a2-6)Gal(b1-4)GlcNAc(b1-3)Gal(b1-4)GlcNAc(b1-3)Gal(b1-4)GlcNAc(b1-2)Man(a1-6)]GalNAc
# In short: as §1
# [16] = target: Neu5Ac(a2-6)Gal(b1-4)GlcNAc(b1-3)Gal(b1-4)GlcNAc(b1-3)GalNAc
# In short: as §1
# [17] = target: Neu5Ac(a2-6)Gal(b1-4)GlcNAc(b1-3)Gal(b1-4)GlcNAc(b1-3)[Neu5Ac(a2-6)Gal(b1-4)GlcNAc(b1-3)Gal(b1-4)GlcNAc(b1-6)]GalNAc
# In short: as §1
# [18] = target: Neu5Ac(a2-6)Gal(b1-4)GlcNAc(b1-3)Gal(b1-4)GlcNAc(b1-6)[Gal(b1-3)]GalNAc
# In short: as §1
# [19] = target: Neu5Ac(a2-6)Gal(b1-4)GlcNAc(b1-3)Gal(b1-4)[Fuc(a1-3)]GlcNAc(b1-3)Gal(b1-4)[Fuc(a1-3)]GlcNAc
# In short: as §1
# [20] = target: Neu5Ac(a2-6)Gal(b1-4)GlcNAc(b1-3)GalNAc
# In short: as §1
# [21] = target: Neu5Ac(a2-6)Gal(b1-4)GlcNAc(b1-3)[Neu5Ac(a2-6)Gal(b1-4)GlcNAc(b1-6)]GalNAc
# In short: as §1
# [22] = target: Neu5Ac(a2-6)Gal(b1-4)GlcNAc(b1-6)GalNAc
# In short: as §1
# [23] = target: Neu5Ac(a2-6)Gal(b1-4)GlcNAc(b1-6)[Gal(b1-3)GlcNAc(b1-3)]Gal(b1-4)Glc
# In short: as §1
# [24] = target: Neu5Ac(a2-6)Gal(b1-4)GlcNAc(b1-6)[Gal(b1-3)]GalNAc
# In short: as §1
# [25] = target: Neu5Ac(a2-6)Gal(b1-4)GlcNAc6S
# In short: as §1
# Neu5Ac(a2-6)GalNAc = target: Neu5Ac(a2-6)GalNAc
# In short: as §1
# [26] = target: Neu5Ac(a2-6)GalNAc(b1-4)GlcNAc
# In short: as §1
# [27] = target: Neu5Ac(a2-6)GalNAc(b1-4)GlcNAc6S
# In short: as §1
# [28] = target: Neu5Ac(a2-6)GlcNAc(b1-4)GlcNAc
# In short: as §1
# [29] = target: Neu5Ac(a2-6)GlcNAc(b1-4)GlcNAc(b1-4)GlcNAc
# In short: as §1
binder,measurement,setting,value
B1,glycan array binding signal (z-score),[1],0.179
same,glycan array binding signal (z-score),[2],0.585
same,glycan array binding signal (z-score),[3],1.1
same,glycan array binding signal (z-score),[4],-0.155
same,glycan array binding signal (z-score),[5],2.47
same,glycan array binding signal (z-score),[6],5.03
same,glycan array binding signal (z-score),[7],-0.236
same,glycan array binding signal (z-score),[8],-0.196
same,glycan array binding signal (z-score),[9],-0.237
same,glycan array binding signal (z-score),[10],-0.197
same,glycan array binding signal (z-score),[11],-0.221
same,glycan array binding signal (z-score),[12],-0.274
same,glycan array binding signal (z-score),[13],0.004
same,glycan array binding signal (z-score),[14],-0.282
same,glycan array binding signal (z-score),[15],-0.078
same,glycan array binding signal (z-score),[16],-0.153
same,glycan array binding signal (z-score),[17],-0.208
same,glycan array binding signal (z-score),[18],-0.216
same,glycan array binding signal (z-score),[19],-0.176
same,glycan array binding signal (z-score),[20],-0.274
same,glycan array binding signal (z-score),[21],-0.247
same,glycan array binding signal (z-score),[22],-0.235
same,glycan array binding signal (z-score),[23],-0.28
same,glycan array binding signal (z-score),[24],-0.133
same,glycan array binding signal (z-score),[25],-0.245
same,glycan array binding signal (z-score),Neu5Ac(a2-6)GalNAc,-0.27
same,glycan array binding signal (z-score),[26],-0.307
same,glycan array binding signal (z-score),[27],-0.227
same,glycan array binding signal (z-score),[28],-0.141
same,glycan array binding signal (z-score),[29],-0.29
